# Measured values as given in the supplement of paper PMC8728848.
# The list shows a part of the results.
# Columns and labels:
# Assay in all cases: glycan array binding signal (z-score within array); higher = stronger binding
# Details in all cases: glycan notation: IUPAC condensed, linker removed
# [1] = molecular target: Gal(b1-3)GlcNAc(a1-6)Gal(b1-4)GlcNAc
# How it was run: (§1)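 Glycan array data came from 3228 arrays in the Consortium for Functional Glycomics database, and only arrays with an available protein sequence were kept. Glycan names were put into IUPAC-condensed notation, and columns mapping to the same glycan were averaged. The binding signal is a within-array Z-score, averaged across arrays of one protein sequence run at different concentrations or buffers and across linkers. A negative Z-score can be read as non-binding.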
# [2] = molecular target: Gal(b1-3)GlcNAc(b1-2)Man(a1-3)[Gal(b1-3)GlcNAc(b1-2)Man(a1-6)]Man(b1-4)GlcNAc(b1-4)GlcNAc
# How it was run: as §1
# [3] = molecular target: Gal(b1-3)GlcNAc(b1-2)Man(a1-3)[Gal(b1-3)GlcNAc(b1-2)Man(a1-6)]Man(b1-4)GlcNAc(b1-4)[Fuc(a1-6)]GlcNAc
# How it was run: as §1
# [4] = molecular target: Gal(b1-3)GlcNAc(b1-2)[Gal(b1-3)GlcNAc(b1-6)]Man(a1-6)[Gal(b1-3)GlcNAc(b1-2)Man(a1-3)]Man(b1-4)GlcNAc(b1-4)GlcNAc
# How it was run: as §1
# [5] = molecular target: Gal(b1-3)GlcNAc(b1-3)Gal(b1-3)GlcNAc
# How it was run: as §1
# [6] = molecular target: Gal(b1-3)GlcNAc(b1-3)Gal(b1-4)Glc
# How it was run: as §1
# [7] = molecular target: Gal(b1-3)GlcNAc(b1-3)Gal(b1-4)GlcNAc
# How it was run: as §1
# [8] = molecular target: Gal(b1-3)GlcNAc(b1-3)Gal(b1-4)GlcNAc(b1-6)[Gal(b1-3)GlcNAc(b1-3)]Gal(b1-4)Glc
# How it was run: as §1
# [9] = molecular target: Gal(b1-3)GlcNAc(b1-3)Gal(b1-4)[Fuc(a1-3)]GlcNAc(b1-6)[Gal(b1-3)GlcNAc(b1-3)]Gal(b1-4)Glc
# How it was run: as §1
# [10] = molecular target: Gal(b1-3)GlcNAc(b1-3)GalNAc
# How it was run: as §1
# [11] = molecular target: Gal(b1-3)GlcNAc(b1-6)Gal(b1-4)GlcNAc
# How it was run: as §1
# [12] = molecular target: Gal(b1-3)[Fuc(a1-4)]GlcNAc
# How it was run: as §1
# [13] = molecular target: Gal(b1-3)[Fuc(a1-4)]GlcNAc(b1-2)Man(a1-3)[Gal(b1-3)[Fuc(a1-4)]GlcNAc(b1-2)Man(a1-6)]Man(b1-4)GlcNAc(b1-4)GlcNAc
# How it was run: as §1
# [14] = molecular target: Gal(b1-3)[Fuc(a1-4)]GlcNAc(b1-2)Man(a1-3)[Gal(b1-3)[Fuc(a1-4)]GlcNAc(b1-2)Man(a1-6)]Man(b1-4)GlcNAc(b1-4)[Fuc(a1-6)]GlcNAc
# How it was run: as §1
# [15] = molecular target: Gal(b1-3)[Fuc(a1-4)]GlcNAc(b1-3)Gal(b1-3)[Fuc(a1-4)]GlcNAc
# How it was run: as §1
# [16] = molecular target: Gal(b1-3)[Fuc(a1-4)]GlcNAc(b1-3)Gal(b1-4)GlcNAc
# How it was run: as §1
# [17] = molecular target: Gal(b1-3)[Fuc(a1-4)]GlcNAc(b1-3)Gal(b1-4)[Fuc(a1-3)]GlcNAc
# How it was run: as §1
# [18] = molecular target: Gal(b1-3)[GlcNAc(b1-6)]GalNAc
# How it was run: as §1
# [19] = molecular target: Gal(b1-3)[Neu5Ac(a2-6)]GalNAc
# How it was run: as §1
# [20] = molecular target: Gal(b1-3)[Neu5Ac(a2-6)]GlcNAc(b1-6)Gal(b1-4)Glc
# How it was run: as §1
# [21] = molecular target: Gal(b1-3)[Neu5Ac(b2-6)]GalNAc
# How it was run: as §1
# Gal(b1-4)Gal = molecular target: Gal(b1-4)Gal
# How it was run: as §1
# [22] = molecular target: Gal(b1-4)GalNAc(a1-3)[Fuc(a1-2)]Gal(b1-4)GlcNAc
# How it was run: as §1
# [23] = molecular target: Gal(b1-4)GalNAc(b1-3)[Fuc(a1-2)]Gal(b1-4)GlcNAc
# How it was run: as §1
# Gal(b1-4)Glc = molecular target: Gal(b1-4)Glc
# How it was run: as §1
# Gal(b1-4)Glc6S = molecular target: Gal(b1-4)Glc6S
# How it was run: as §1
# Gal(b1-4)GlcNAc = molecular target: Gal(b1-4)GlcNAc
# How it was run: as §1
# [24] = molecular target: Gal(b1-4)GlcNAc(a1-6)Gal(b1-4)GlcNAc
# How it was run: as §1
# Gal(b1-4)GlcNAc(b1-2)Man = molecular target: Gal(b1-4)GlcNAc(b1-2)Man
# How it was run: as §1
# [25] = molecular target: Gal(b1-4)GlcNAc(b1-2)Man(a1-3)Man(b1-4)GlcNAc(b1-4)GlcNAc
# How it was run: as §1
# [26] = molecular target: Gal(b1-4)GlcNAc(b1-2)Man(a1-3)[Gal(b1-4)GlcNAc(b1-2)Man(a1-6)]Man(b1-4)GlcNAc(b1-4)GlcNAc
# How it was run: as §1
# [27] = molecular target: Gal(b1-4)GlcNAc(b1-2)Man(a1-3)[Gal(b1-4)GlcNAc(b1-2)Man(a1-6)]Man(b1-4)GlcNAc(b1-4)[Fuc(a1-6)]GlcNAc
# How it was run: as §1
# [28] = molecular target: Gal(b1-4)GlcNAc(b1-2)Man(a1-3)[Gal(b1-4)GlcNAc(b1-2)][GlcNAc(b1-4)]Man(b1-4)GlcNAc(b1-4)GlcNAc
# How it was run: as §1
# [29] = molecular target: Gal(b1-4)GlcNAc(b1-2)Man(a1-3)[GlcNAc(b1-2)Man(a1-6)]Man(b1-4)GlcNAc(b1-4)GlcNAc
# How it was run: as §1
# [30] = molecular target: Gal(b1-4)GlcNAc(b1-2)Man(a1-3)[Man(a1-6)]Man(b1-4)GlcNAc(b1-4)GlcNAc
# How it was run: as §1
# [31] = molecular target: Gal(b1-4)GlcNAc(b1-2)Man(a1-6)Man(b1-4)GlcNAc(b1-4)GlcNAc
# How it was run: as §1
# [32] = molecular target: Gal(b1-4)GlcNAc(b1-2)Man(a1-6)[GlcNAc(b1-2)Man(a1-3)]Man(b1-4)GlcNAc(b1-4)GlcNAc
# How it was run: as §1
# [33] = molecular target: Gal(b1-4)GlcNAc(b1-2)Man(a1-6)[Man(a1-3)]Man(b1-4)GlcNAc(b1-4)GlcNAc
# How it was run: as §1
# [34] = molecular target: Gal(b1-4)GlcNAc(b1-2)[Gal(b1-4)GlcNAc(b1-4)]Man(a1-3)[Gal(b1-4)GlcNAc(b1-2)Man(a1-6)]Man(b1-4)GlcNAc(b1-4)GlcNAc
# How it was run: as §1
# [35] = molecular target: Gal(b1-4)GlcNAc(b1-2)[Gal(b1-4)GlcNAc(b1-4)]Man(a1-3)[Gal(b1-4)GlcNAc(b1-2)[Gal(b1-4)GlcNAc(b1-6)]Man(a1-6)]Man(b1-4)GlcNAc(b1-4)GlcNAc
# How it was run: as §1
# [36] = molecular target: Gal(b1-4)GlcNAc(b1-2)[Gal(b1-4)GlcNAc(b1-4)]Man(a1-3)[GlcNAc(b1-4)][Gal(b1-4)GlcNAc(b1-2)Man(a1-6)]Man(b1-4)GlcNAc(b1-4)GlcNAc
# How it was run: as §1
# [37] = molecular target: Gal(b1-4)GlcNAc(b1-2)[Gal(b1-4)GlcNAc(b1-4)]Man(a1-3)[GlcNAc(b1-4)][Gal(b1-4)GlcNAc(b1-2)[Gal(b1-4)GlcNAc(b1-6)]Man(a1-6)]Man(b1-4)GlcNAc(b1-4)GlcNAc
# How it was run: as §1
# [38] = molecular target: Gal(b1-4)GlcNAc(b1-2)[Gal(b1-4)GlcNAc(b1-6)]Man(a1-6)[Gal(b1-4)GlcNAc(b1-2)Man(a1-3)]Man(b1-4)GlcNAc(b1-4)GlcNAc
# How it was run: as §1
# [39] = molecular target: Gal(b1-4)GlcNAc(b1-2)[Gal(b1-4)GlcNAc(b1-6)]Man(a1-6)[GlcNAc(b1-4)][Gal(b1-4)GlcNAc(b1-2)Man(a1-3)]Man(b1-4)GlcNAc(b1-4)GlcNAc
# How it was run: as §1
# [40] = molecular target: Gal(b1-4)GlcNAc(b1-3)Gal(b1-3)GlcNAc
# How it was run: as §1
binder,measurement,setting,value
Gal 9 (Canis lupus) (protein) MAFSSSQPPYLSPGVPFSGKIQGGLQDGLKITINGTILYCNGTRFAVNFHSGHSDSDIAFHFNPRFEEGGYVVCNTKQKGSWGSEERKMQMPFQMGNPFELCFMVNSCDFKVTVNGSHFTQYSHRVPFHYVDTLSITGAVQLSYISFQSPGVWQSSSAPITQTVIHTVQTTPGQPFPNPIIPPTAYPTPTYPMPFFTSIPGGLYPSKSIIVSGTVLPGAKRFHINLRSGNDIAFHLNPRFNENTVVRNMQINNSWGSEERSLPRKMPFVQGQSFSVWIMCEGHCFKVAVDGEHLFEYYHRLKNLLAINNMEVAGDVQLTHVQT,glycan array binding signal (z-score),[1],-0.338
same,glycan array binding signal (z-score),[2],0.27
same,glycan array binding signal (z-score),[3],0.233
same,glycan array binding signal (z-score),[4],0.096
same,glycan array binding signal (z-score),[5],0.134
same,glycan array binding signal (z-score),[6],0.293
same,glycan array binding signal (z-score),[7],-0.001
same,glycan array binding signal (z-score),[8],0.153
same,glycan array binding signal (z-score),[9],0.143
same,glycan array binding signal (z-score),[10],0.034
same,glycan array binding signal (z-score),[11],-0.048
same,glycan array binding signal (z-score),[12],-0.336
same,glycan array binding signal (z-score),[13],-0.231
same,glycan array binding signal (z-score),[14],-0.287
same,glycan array binding signal (z-score),[15],-0.315
same,glycan array binding signal (z-score),[16],0.391
same,glycan array binding signal (z-score),[17],-0.336
same,glycan array binding signal (z-score),[18],0.285
same,glycan array binding signal (z-score),[19],-0.199
same,glycan array binding signal (z-score),[20],0.09
same,glycan array binding signal (z-score),[21],-0.334
same,glycan array binding signal (z-score),Gal(b1-4)Gal,-0.328
same,glycan array binding signal (z-score),[22],1.11
same,glycan array binding signal (z-score),[23],-0.339
same,glycan array binding signal (z-score),Gal(b1-4)Glc,-0.213
same,glycan array binding signal (z-score),Gal(b1-4)Glc6S,0.154
same,glycan array binding signal (z-score),Gal(b1-4)GlcNAc,-0.3
same,glycan array binding signal (z-score),[24],0.381
same,glycan array binding signal (z-score),Gal(b1-4)GlcNAc(b1-2)Man,0.016
same,glycan array binding signal (z-score),[25],0.09
same,glycan array binding signal (z-score),[26],0.105
same,glycan array binding signal (z-score),[27],0.194
same,glycan array binding signal (z-score),[28],-0.022
same,glycan array binding signal (z-score),[29],0.169
same,glycan array binding signal (z-score),[30],0.089
same,glycan array binding signal (z-score),[31],0.23
same,glycan array binding signal (z-score),[32],0.132
same,glycan array binding signal (z-score),[33],-0.15
same,glycan array binding signal (z-score),[34],0.362
same,glycan array binding signal (z-score),[35],0.012
same,glycan array binding signal (z-score),[36],0.239
same,glycan array binding signal (z-score),[37],0.27
same,glycan array binding signal (z-score),[38],0.215
same,glycan array binding signal (z-score),[39],0.042
same,glycan array binding signal (z-score),[40],0.186
